Assay results published in PubChem BioAssay AID485294 (National Center for Advancing Translational Sciences (NCATS), 2010).
Values joined by “and” are separate entries in the source; they are usually repeats but may differ in a detail not shown here. Equal values may be shown once. The campaign covered roughly 370,000 compounds. About 150 (0.041%) were called active. Inconclusive means that the source gave no clear call. Such entries were picked first, then a sample of the others. Calls come from the whole dose curve; as a rule, active = well fitted inhibition curve with a large enough effect; inconclusive = small, poorly fitted or top-dose-only effect; inactive = flat fitted curve, though single readings scatter. A potency beside an inconclusive call is a rough fit, not a confirmed value.

Biological target: Beta-lactamase (Escherichia coli (strain K12)) (UniProt P00811)
Assay: qHTS Inhibitors of AmpC Beta-Lactamase (assay with detergent); note: nearly all actives have a fitted effect of over 25% in size;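 for activity change, negative = inhibition: 0% = no-compound wells and -100% = no-enzyme wells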
Conditions: AmpC hydrolysis of nitrocefin, absorbance 480 nm, 0.01% Triton; activity change, negative = inhibition: at 114 µM (top of the series)
Description: NIH Molecular Libraries Probe Production Network [MLPCN] NIH Chemical Genomics Center [NCGC] Assay Provider: Professor Brian Shoichet, UCSF Assay Overview: This aggregation profiling approach exploits the sensitivity of aggregate formation to detergent. Inhibition of b-lactamase is measured in the presence and absence of 0.01% Triton X-100. This particular assay had the prescence of 0.01% Triton X-100. See Pubchem assay "Promiscuous and Specific Inhibitors of AmpC Beta-Lactamase (assay without detergent)" for related screen. Compounds that inhibit only in the absence of detergent are considered likely promiscuous aggregators. A screen of 1,030 compounds was performed in Brian Shoichet's lab in 96-well format. AmpC activity was measured by following the absorbance at 480 nm. Nitrocefin is a chromogenic substrate: while nitrocefin is yellow (lmax 390 nm), the product of its hydrolysis is red (lmax 486 nm, 17,000 M-1). AmpC beta lactamase was provided by Shoichet Lab, UCSF.
Buffer: 20 mM phosphate buffer, pH 7.0 Triton X-100: No Detergent screen: 0.0001%, Detergent screen: 0.01%. Reagents/Controls: Buffer in columns 3 and 4 as negative control (no enzyme). 5.3 nM AmpC in columns 1, 2, 5-48. Titration of UCSF compound 9 control (from 10 mM, then 1:2) pin-transferred to column 2. Column 1 is neutral (100% activity). Assay Steps: Six uL of reagents were dispensed to 1536-well Greiner black clear bottom plates. Compounds and controls (23 nL) were transferred via Kalypsys PinTool. The plates were incubated for 15 min at room temperature, and then 2 uL of 800 uM solution of nitrocefin was added to start the reaction. The plates were immediately transferred to and read every 20 seconds for 4 min on ViewLux (Perkin-Elmer) High-throughput CCD imager using 480 nm absorbance protocol. During dispense, reagent bottles were kept submerged into 4 deg C water bath. Keywords: NIH Roadmap, MLSCN, MLI, MLSMR, qHTS, NCGC, AmpC Beta-Lactamase, Aggregation
Potency is the fitted concentration of half-maximal effect; tags give direction and shape of the fitted curve.

Sequence of UniProt P00811 (P00811 whole entry, looked up): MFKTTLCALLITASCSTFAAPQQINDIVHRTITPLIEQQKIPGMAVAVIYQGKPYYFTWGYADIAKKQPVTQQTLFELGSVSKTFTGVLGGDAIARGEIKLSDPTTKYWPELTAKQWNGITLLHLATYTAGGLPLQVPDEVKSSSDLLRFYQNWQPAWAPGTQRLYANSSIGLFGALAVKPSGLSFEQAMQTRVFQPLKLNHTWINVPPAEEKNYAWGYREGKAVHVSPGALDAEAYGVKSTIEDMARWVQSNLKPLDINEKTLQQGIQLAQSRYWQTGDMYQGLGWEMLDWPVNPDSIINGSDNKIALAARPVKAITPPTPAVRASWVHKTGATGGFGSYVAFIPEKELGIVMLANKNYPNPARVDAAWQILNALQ

SMILES	Potency	activity change, negative = inhibition
O=C(Nc1nnc(-c2ccc(Br)cc2)o1)c1cccc(N2C(=O)CCC2=O)c1	inconclusive: 5.01 µM [inhibitor, full curve, poor fit]	
CCOc1ccc(NC(=O)C(C)Oc2ccccc2C(=O)Nc2ccc(C)c(Cl)c2)cc1 (stereo not given)		inactive: -8.71%
O=C(NC1CC1)C1CSC(c2cccnc2)=N1 (stereo not given)	inconclusive: 50.1 µM [inhibitor, partial curve, poor fit]	
Cc1nc(-c2ccc(C(=O)N3CCOCC3)cc2)cs1	inconclusive: 2.82 µM [inhibitor, full curve]	
CCOc1ccccc1N1CCN(C(=O)c2cc(C)oc2C)CC1	inconclusive: 1.41 µM [inhibitor, full curve, poor fit]	
O=C(Nc1c(-c2ccc(F)cc2)nc2ccccn12)c1ccc(F)cc1		inactive: 0.768%
COc1cc(NC(=O)c2ccc(Br)o2)ccc1NC(=O)c1ccccc1Cl		inactive: -5.04%
COC(=O)/C=C1/N/C(=N\c2nc(C)cc(C)n2)N(c2ccc(Cl)cc2)C1=O	inconclusive: 31.6 µM [inhibitor, partial curve, poor fit]	
COc1cc(C(=O)OCC(=O)N(C)Cc2ccccc2)cc(OC)c1OC	inconclusive: 79.4 µM [inhibitor, single point]	
Cc1ccc(C(=O)N/C(=C\c2cccs2)C(=O)NCc2cccnc2)cc1	inconclusive: 5.62 µM [inhibitor, full curve, poor fit]	
CCC(=O)N1CCc2cc(CNS(=O)(=O)c3ccc(Cl)s3)ccc21		inactive: 16.9%
Cc1ccc(CN2CCN(/N=C/c3ccc(O)c(O)c3)CC2)cc1	inconclusive: 0.562 µM [inhibitor, full curve, poor fit]	
CCn1c(C(=O)N2CCCC(C(=O)NCCc3ccc(C)cc3)C2)cc2sccc21 (stereo not given)		inactive: -5.07%
Cc1nc2nc(SCC(=O)c3cccc([N+](=O)[O-])c3)[nH]c2cc1Br		inactive: 2.97%
O=C1NCCc2c1[nH]c1ccccc21	inactive and inconclusive: 7.08 µM [inhibitor, full curve]	
Cc1cc(C)cc(N(CC(=O)N2CCCC2)S(C)(=O)=O)c1	inconclusive: 0.562 µM [inhibitor, full curve, poor fit]	
Cc1ccc(S(=O)(=O)N2CCN(CN3C(=O)CC4(CCCC4)C3=O)CC2)cc1	inconclusive: 1.12 µM [inhibitor, full curve, poor fit]	
CCC(OC(=O)CNS(=O)(=O)c1ccccc1)C(=O)c1ccccc1 (stereo not given)	inconclusive: 3.98 µM [inhibitor, full curve, poor fit]	
O=S(=O)(c1ccc(Br)s1)N1CCN(CCc2ccccc2)CC1	inconclusive: 0.631 µM [inhibitor, full curve, poor fit]	
COc1ccc(Nc2nc(Cl)nc(Nc3ccc(OC)cc3)n2)cc1	inconclusive: 63.1 µM [inhibitor, partial curve, poor fit]	
CC(C)CC(NC(=O)C(NC(=O)C1CCC(=O)N1C(=O)OCc1ccccc1)C(C)C)C(=O)N1CCCC1C(N)=O (stereo not given)	inconclusive: 39.8 µM [inhibitor, single point]	
O=C(NNC(=O)c1cc(-c2ccncc2)nc2ccccc12)c1ccccc1O		inactive: -18.1%
CC1CN(C(=O)Cn2cc(S(=O)(=O)CC(=O)N(C)c3ccccc3)c3ccccc32)CC(C)O1 (stereo not given)	inconclusive: 25.1 µM [inhibitor, single point]	

SMILES	Potency	activity change, negative = inhibition
Cc1cc(Nc2ccc(N(C)C)cc2)n2ncnc2n1	inconclusive: 35.5 µM [inhibitor, partial curve]	
CC1Sc2ccc(S(=O)(=O)NCc3ccccc3)cc2NC1=O (stereo not given)		inactive: 0.475%
CC(C)CCn1c(-c2nonc2N)nc2ccccc21		inactive: -6.87%
Cc1ccc(NC(=O)COC(=O)c2ccc(Br)o2)cc1S(=O)(=O)N1CCCCC1	inconclusive: 1.26 µM [inhibitor, full curve, poor fit]	
CCOc1cc(C(=O)Nc2ccc(C(=O)NCCN(CC)CC)cc2)ccc1OCC(=O)N1CCOCC1	inconclusive: 100 µM [inhibitor, partial curve]	
Cc1cccc(N(C)C(=O)C2CCN(S(=O)(=O)c3cccc4nonc34)CC2)c1		inactive: 2.08%
COC(=O)C1=NN(c2ccccc2)C2(S1)S/C(=C\c1ccccc1)C(=O)N2c1ccccc1 (stereo not given)		inactive: 1.7%
Cc1nc2ccccc2n1CCc1nc2c3ccccc3nc(SCC#N)n2n1	inconclusive: 39.8 µM [inhibitor, partial curve, poor fit]	
CCc1[nH]nc(C(=O)N2CCCC(Nc3ccc(C(C)C)cc3)C2)c1C (stereo not given)		inactive: 0.624%
Cc1ccc(S(=O)(=O)CCC(=O)Nc2ccc3c(c2)OCO3)cc1		inactive: -12.8%
COc1ccc2nc(SCC(=O)N3CCCCCC3)c(C#N)cc2c1		inactive: -9.52%
CCCOc1ccc(N2C(=O)CC(N3CCN(c4ccccc4F)CC3)C2=O)cc1 (stereo not given)	inconclusive: 126 µM [inhibitor, partial curve, poor fit]	
COc1ccccc1C1=NC(c2ccccc2)CN1c1ccccc1 (stereo not given)		inactive: 1.77%
O=C(NN=C1CCCCCCC1)c1ccc(F)cc1		inactive: 0.701%
Cc1cc(NC(=O)c2cc(-c3ccccc3C)nc3ccccc23)no1	inconclusive: 100 µM [inhibitor, partial curve, poor fit]	
COc1ccc2nc(C)cc(Nc3ccc(N4CCN(C)CC4)cc3)c2c1		inactive: -5.9%
COc1ccc(Cc2nc3c4cnn(-c5ccccc5Br)c4ncn3n2)cc1		inactive: 12.3%
CCc1nc(N)c(C#N)c(-c2cccc3ccccc23)c1C	inconclusive: 56.2 µM [inhibitor, partial curve, poor fit]	
Cc1cccc(OCC(=O)NCc2ccc3c(c2)CCN3C(=O)c2ccccc2)c1		inactive: -5.7%
CCOc1ccc(-c2nnn(CC(=O)c3ccc4c(c3)OCCO4)n2)cc1	inconclusive: 0.631 µM [inhibitor, full curve, poor fit]	
Cc1ccc2cc3cc(C(=O)NCCN4CCOCC4)oc3nc2c1	inconclusive: 100 µM [inhibitor, partial curve]	
COc1ccc(C(=O)NCCSCc2ccco2)cc1OC	inconclusive: 0.891 µM [inhibitor, full curve]	
